# Test results published in PubChem BioAssay AID686979 (National Center for Advancing Translational Sciences (NCATS), 2013).
# Several values for one entry are separate records, joined by “and”; a condition that tells them apart may be missing. Equal values may be shown once. The campaign covered roughly 420,000 compounds. About 50,000 (12%) were called active. This list was built around the results that the source calls inconclusive (neither active nor inactive); the mix of calls is not that of the screen. Calls come from the whole dose curve; as a rule, active = well fitted inhibition curve with a large enough effect; inconclusive = small, poorly fitted or top-dose-only effect; inactive = flat fitted curve, though single readings scatter. Potencies of inconclusive entries are left out as doubtful fits. A structure can be active in one record and inactive in another.
# Test: qHTS for Inhibitors of human tyrosyl-DNA phosphodiesterase 1 (TDP1): qHTS in cells in presence of CPT; note: nearly all actives have a fitted effect of over 55% in size
# Conditions: chicken DT40 Tdp1-/-;hTDP1 cells + 20 nM CPT, ATP luminescence, 48 h; activity change, negative = growth inhibition: at 46.2 µM (top of the series) unless noted
# Summary of the method: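 Cell growth measured by CellTiter-Glo luminescence after a minimum 48 h, 37 C compound exposure with 20 nM CPT in Tdp1-knockout DT40 cells stably expressing hTDP1, seeded 400/well; qHTS titration format.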
# % is set by controls: 0 for no effect and ±100 for the full control effect; potency is the fitted concentration of half-maximal effect; tags give direction and shape of the fitted curve.
SMILES,Potency,"activity change, negative = growth inhibition"
Nc1nc2c(ncn2COC(CO)CO)c(=O)[nH]1,active: 1.61 µM and active: 1.3 µM,–
Cn1nc(CC(=O)NCc2ccc(C(F)(F)F)cc2)c2ccccc2c1=O,active: 29.1 µM,–
CCOC(=O)CNC(=O)Cn1c(C)cc2ccccc2c1=O,–,inactive: -28.7%
CC1(C)CC(=O)CC(=O)/C1=N\Nc1c(Cl)cc(Cl)cc1Cl,"inconclusive [inhibitor, single point]",–
COc1ccc(NC(C)=O)c([N+](=O)[O-])c1[N+](=O)[O-],"inconclusive [inhibitor, single point]",–
COc1cc(C(=O)Nc2nc3ccccc3[nH]2)ccc1OC(F)F,active: 20.6 µM,–
Cc1ccc(S(=O)(=O)N/N=C/c2ccccc2O)cc1,–,inactive: -17.3%
Cc1cc(C)n(-c2nc(C)c(C)c(=O)n2CC(=O)Nc2ccc([N+](=O)[O-])cc2)n1,"inconclusive [inhibitor, single point]",–
CC(C)C(=O)Nc1ccc(/C=C2\C=Cc3ccccc32)cc1,"inconclusive [inhibitor, partial curve, poor fit]",–
O=C(CCCNS(=O)(=O)c1ccc(Br)cc1)N1CC[C@@]2(O)CCCC[C@H]2C1,–,inconclusive: -31.5% [inhibitor]
Cc1ccccc1OCCN(C#N)c1nc(N(C)C)nc(N(C)C)n1,"inconclusive [inhibitor, single point]",–
O=C(NCCc1cccc(F)c1)C1CCC(=O)N(CCCc2ccccc2)C1 (stereo not given),active: 18.4 µM,–
COc1ccc(CCNC(=O)c2ccc3c(c2)N(Cc2ccc(F)cc2)C(=O)c2ccccc2S3(=O)=O)cc1OC,"inconclusive [inhibitor, single point]",–
COc1cc(/C=C/c2cccc[n+]2C)ccc1OCC(=O)Nc1ccccc1,–,inactive: -30.8%
COc1cccc(NS(=O)(=O)c2c(C)n(C)c(=O)n(C)c2=O)c1,–,inactive: -2.09%
CCOC(=O)c1ccc(NC(=O)Cn2cc(C(=O)C3CC3)c3ccccc32)cc1,"inconclusive [inhibitor, single point]",–
COc1cccc(/C=C2\SC(=S)N(NS(=O)(=O)c3ccccc3)C2=O)c1OC,"inconclusive [inhibitor, single point]",–
Cc1c(C(=O)Nc2cccc(C(F)(F)F)c2)sc2nc[nH]c(=O)c12,active: 16.4 µM,–
Cc1ccsc1C(C(=O)NC1CCCCC1)N(C(=O)c1csnn1)C1CC1 (stereo not given),"inconclusive [inhibitor, single point]",–
Cc1cc(Cl)c2oc(C(=O)NCCN3CCCCC3CO)c(C)c2c1 (stereo not given),"inconclusive [inhibitor, single point]",–
CCN(c1ccccc1)S(=O)(=O)c1ccc2[nH]cc(C(=O)NCCOC)c(=O)c2c1,"inconclusive [inhibitor, single point]",–
Cc1ccc(S(=O)(=O)n2cc(C=O)c3ccccc32)cc1,"inconclusive [inhibitor, single point]",–
CCOC(=O)c1ccc(NC(=O)CSc2nnc(NC(=O)c3ccc(S(=O)(=O)N4CCOCC4)cc3)s2)cc1,–,inconclusive: 3.91% [inhibitor]
Cc1ccccc1Nc1c(-c2c(F)cccc2Cl)nc2ccc(Br)cn12,"inconclusive [inhibitor, single point]",–

SMILES,Potency,"activity change, negative = growth inhibition"
Cc1onc(-c2ccccc2)c1C(=O)NNC(=S)NC(=O)/C=C/c1cccs1,active: 16.4 µM,–
COc1ccc(-c2ocnc2C(=O)Nc2ccc(N3CCOCC3)cc2N2CCOCC2)cc1OC,"inconclusive [inhibitor, single point]",–
Cc1cc(C)c2nc(N(CCCN(C)C)C(=O)c3ccc(S(=O)(=O)N4CCCCCC4)cc3)sc2c1,"inconclusive [inhibitor, single point]",–
CCOC(=O)c1ccc(NC(=O)CCCn2c(=O)c3cccn3c3ccccc32)cc1,"inconclusive [inhibitor, partial curve]",–
CCOC(=O)C1=C(SCC(=O)Nc2ccccc2)NC(=O)C(C#N)C12CCCCC2 (stereo not given),–,inconclusive: -32.1% [inhibitor]
Cc1ccc(-n2ncc3c(NCCCN4CCOCC4)ncnc32)cc1C,"inconclusive [inhibitor, single point]",–
O=C(Nc1ccc([N+](=O)[O-])cc1NC(=O)c1ccccc1)c1ccccc1,"inconclusive [inhibitor, single point]",–
O=C(NCc1ccccc1)C(c1ccccc1)n1c(C2CC2)nc2ccccc21 (stereo not given),"inconclusive [inhibitor, single point]",–
COC(=O)C1=C(C)Nc2nc3ccccc3n2C1c1ccccc1F (stereo not given),"inconclusive [inhibitor, partial curve, poor fit]",–
NC1=NC(c2ccc(Cl)cc2)N(c2ccc(S(N)(=O)=O)cc2)C(N)=N1 (stereo not given),–,inactive: 5.18%
CCCC(=O)c1ccc(N2CCN(C(=O)c3cccs3)CC2)c(F)c1,"inconclusive [inhibitor, partial curve]",–
Cc1ccc(C)c(NC(=O)C2CCCN(c3ncnc4onc(C)c34)C2)c1 (stereo not given),active: 11.6 µM,–
Cc1nn(C)c(C)c1Sc1ccc(Br)cc1,–,inactive: -24.9%
COc1ccc2oc(=N)c(C(=O)NCc3ccccc3)cc2c1,–,inactive: -7.52%
OC(c1ccccc1)c1nc(-c2csc3ccccc23)cs1 (stereo not given),"inconclusive [inhibitor, single point]",–
CCN(CC(=O)Nc1ccc(OC)cc1)C(=O)c1ccc(NS(=O)(=O)c2ccc(C(C)=O)cc2)cc1,"inconclusive [inhibitor, full curve, poor fit]",–
O=C(Nc1cccc(C(F)(F)F)c1)c1cccnc1N1CCN(c2ccccc2)CC1,"inconclusive [inhibitor, single point]",–
COc1ccc(OC)c(C2=NS(=O)(=O)N(C)C(C(=O)Nc3ccc(F)cc3F)=C2)c1,active: 11.6 µM and active: 16.4 µM,–
O=C(CSc1cn(CC(=O)N2CCCCC2)c2ccccc12)Nc1ccccc1,–,inactive: -2.78%
CCOc1cc(C2NC(=O)NC(O)(C(F)(F)F)C2C(=O)c2ccccc2)ccc1OC (stereo not given),–,inactive: -27.7%
COc1ccc(OC)c(S(=O)(=O)NCCS(=O)(=O)N2CCN(c3ccccc3)CC2)c1,inactive and active: 20.6 µM,–
CCOC(=O)C1=CN(Cc2cccc(F)c2)S(=O)(=O)N(CC)C1c1ccc(Br)cc1F (stereo not given),"inconclusive [inhibitor, single point]",–
COc1cccc(CNC(=O)c2cccc(-n3c(C)nc4cccnc43)c2)c1OC,"inconclusive [inhibitor, single point]",–
C/C(=N\NC(=O)CNC(=O)c1ccc(F)cc1)c1ccco1,–,inactive: -1.86%

SMILES,Potency,"activity change, negative = growth inhibition"
O=C(Cn1c(=O)n(-c2ccccc2)c(=O)c2c3c(sc21)CCCC3)Nc1ccc(F)cc1F,"inconclusive [inhibitor, single point]",–
COc1ccc(Nc2oc(COc3ccccc3F)nc2C#N)cc1,"inconclusive [inhibitor, single point]",–
CCOC1=C2[C@@H](CN(S(=O)(=O)c3ccc(C)cc3)[C@H]2c2ccccc2Cl)[C@H]2C(=O)N(C)C(=O)[C@H]2C1,active: 25.9 µM,–
S=C1NCN(Cc2cccnc2)CN1,–,inactive: 11.3%
Cc1cc(OCC(=O)NCc2cccnc2)c2c(C)c(Cc3ccccc3)c(=O)oc2c1,"inconclusive [inhibitor, single point]",–
NC(=O)CCn1nc(-c2ccccc2)c2ccccc2c1=O,–,inactive: -6.7%
COc1ccc(CNCc2ccc3ccccc3c2)c(OC)c1,active: 16.4 µM,–
CCn1c(CC(=O)Nc2ccc(C)cc2)nnc1SCC(=O)Nc1nc(C)cs1,"inconclusive [inhibitor, single point]",–
COc1ccccc1-c1sc2ccccc2c1-c1ccc(OCCN2CCOCC2)cc1,"inconclusive [inhibitor, single point]",–
NNC(=O)c1[nH]c2ccccc2c1-c1ccccc1,"inconclusive [inhibitor, single point]",–
COc1ccc([C@H]2CC(=O)C=C(c3ccc(C)c4ccccc34)C2)cc1,"inconclusive [inhibitor, single point]",–
CC(=O)c1cccc(N(CC(=O)Nc2ccc(F)cc2F)S(C)(=O)=O)c1,–,inactive: -2.43%
O=S(=O)(c1ccc2c(c1)OCCO2)N1CCC(O)(c2ccc(Cl)cc2)CC1,–,inconclusive: -32.5% [inhibitor]
O=C(NCC(c1ccco1)S(=O)(=O)c1cccs1)c1ccc(F)c(F)c1 (stereo not given),active: 13 µM,–
Cc1cccc(N(CC(O)CON=C2c3ccccc3-c3ccccc32)S(C)(=O)=O)c1 (stereo not given),"inconclusive [inhibitor, single point]",–
CCOc1ccccc1NC(=O)CC1Nc2cc(C)c(C)cc2NC1=O (stereo not given),active: 18.4 µM,–
CC1CCN(c2nn3c(=O)c(C(=O)NC(C)C)cnc3s2)CC1,–,inactive: -18.6%
CC1Cc2cc(S(=O)(=O)CCC(=O)NCc3ccco3)ccc2N1C(=O)C1CC1 (stereo not given),active: 6.51 µM,–
CCn1c(SCc2nnc(-c3ccccc3)o2)nnc1-c1ccc(S(=O)(=O)N2CCCC2)cc1,"inconclusive [inhibitor, single point]",–
CC(C)c1ccccc1NC(=O)c1cccc(NC(=O)c2ccccc2)c1,active: 16.4 µM,–
CS/C(=C\[N+](=O)[O-])Nc1ccc(F)cc1,–,inactive: -24.8%
COc1ccc(S(=O)(=O)Nc2cc3c4c(c2)CCC(=O)N4CCC3)cc1C,active: 16.4 µM,–
